# Measurements taken from PubChem BioAssay AID463173 (ICCB-Longwood Screening Facility, Harvard Medical School, 2010).
# The whole screen tested about 52,000 compounds, of which about 4,300 (8.3%) were called active. Rule as the data show it: active = survival mostly below about 52% (no sharp cut-off); inactive = mostly above about 56%. Some of the results follow.
# System: DeltatarO mutant
# Experiment: growth inhibition of S. aureus wild type versus tarO mutant, primary screen, teichoic acid synthesis inhibitors, RN4220, OD600 (AID 463173)
# Conditions: OD600, 18 h, stronger effect = lower value, screened at 18.75 µg/mL (by protocol)
row,SMILES,survival
1,Cc1ccc(OC(=O)CCC(=O)N2CCN(C(=O)CCC(=O)Oc3ccc(C)cc3)CC2)cc1,inactive: 108%
2,COc1ccc(C(C(=O)Nc2ccc(C(C)C)cc2)N(C)C(=O)Cc2cccs2)cc1 (stereo unspecified),inactive: 127%
3,Cc1ccccc1Nc1nnc(-c2ccc(C)c(S(=O)(=O)N3CCN(C)CC3)c2)c2ccccc12,inactive: 78%
4,O=C(Cc1csc2ccccc12)NCc1ccc(F)cc1,inactive: 71%
5,COc1cccc(NC(=O)CSC2=Nc3ccccc3C3=NC(CC(=O)NCc4cccs4)C(=O)N23)c1 (stereo unspecified),inactive: 85%
6,COc1ccc(C2c3c(oc4cc(C)cc(C)c4c3=O)C(=O)N2Cc2ccco2)cc1OC (stereo unspecified),inactive: 69%
7,Cc1cccc(N2CCN(C(=O)c3cc4c(=O)[nH]c5ccc(C)cc5c4s3)CC2C)c1 (stereo unspecified),inactive: 95%
8,COc1ccc(CNC(=O)CSCc2cnn(-c3ccccc3)c2-n2cccc2)cc1OC,inactive: 106%
9,CC(=O)N1CCN(c2nc3c(F)cc(F)cc3s2)CC1,inactive: 73%
10,COc1ccc(Cn2c(CNC(=O)Cc3cccc([N+](=O)[O-])c3)nc3cccnc32)cc1,active: -5%
11,COCCCNC(=O)C1CCCN(c2ncnc3onc(C)c23)C1 (stereo unspecified),inactive: 91%
12,COc1ccc(CCNC(=O)c2ccc3c(Cl)c4c(nc3c2)CCCC4)cc1OC,inactive: 75%
13,Cc1c(CCC(=O)NCc2ccc(F)cc2)c(=O)oc2cc(O)ccc12,inactive: 103%
14,Cc1ccc2oc(C(=O)Nc3nc(-c4ccc(F)cc4)ns3)c(C)c2c1,inactive: 71%
15,Cc1ccccc1OCC(=O)Nc1ccc(C(=O)OCc2cc(=O)n3c(C)csc3n2)cc1,inactive: 126%
16,CCOC(=O)c1ccc(CN(Cc2ccc(OC)cc2)S(=O)(=O)c2cccc(C(F)(F)F)c2)cc1,inactive: 73%
17,COc1ccccc1C(=O)Nc1c(C(=O)c2ccccc2)oc2ccccc12,active: -1%
18,CCOc1ccc(N(CC)C(=O)c2noc3c2COc2ccc(C)cc2-3)cc1,inactive: 73%
19,O=c1c(N2CCc3ccccc3C2)csc2ccc(F)cc12,inactive: 70%

row,SMILES,survival
1,CC1=C(C(=O)Nc2ccccc2C)C(c2cccs2)n2nc(SCc3cc(C)ccc3C)nc2N1 (stereo unspecified),inactive: 100%
2,CCOc1ccccc1NC(=O)C1=C(C)Nc2ncnn2C1c1sccc1C (stereo unspecified),inactive: 92%
3,Cc1ccc(CNC(=O)c2c(-c3ccc(Br)cc3)noc2C)o1,inactive: 71%
4,O=C(CCCn1c(=O)c2cccn2c2cccnc21)Nc1ccccc1C(F)(F)F,inactive: 86%
5,CCOC(=O)Cn1c(=O)n(CC2CCCO2)c2nc(-c3ccccc3Cl)nc(C(N)=O)c21 (stereo unspecified),inactive: 81%
6,COc1ccc(NC(=O)c2c(N)c(C(=O)c3ccc(OC)cc3)n3ccccc23)cc1,inactive: 86%
7,CCOC(=O)c1cc2sccc2n1CC(=O)N1CCCC1,inactive: 97%
8,Cc1c(C(=O)NCCc2ccc(Cl)cc2)cccc1-n1cnc2cccnc21,inactive: 78%
9,COc1ccc(N2CCN(C(=O)CSc3nc4ccccc4nc3Cc3ccc(Cl)cc3)CC2)cc1,inactive: 74%
10,CCn1c2ccccc2c2cc(CN3CCN(Cc4ccc(OC)c(OC)c4)CC3)ccc21,active: 17%
11,CCOc1ccc(CC(=O)NCCS(=O)(=O)N2CCN(c3ccc(OC)cc3)CC2)cc1,inactive: 94%
12,Cc1c(C(=O)NCc2ccccc2)oc2ccc(S(=O)(=O)N3CCC(C)CC3)cc12,inactive: 55%
13,Cc1ccc(NC(=O)C(=O)NCC(c2cccnc2)N2CCN(C)CC2)cc1 (stereo unspecified),inactive: 79%
14,O=C(NCCc1ccc(Cl)cc1)C(=O)NCC(c1ccco1)S(=O)(=O)c1ccccc1 (stereo unspecified),inactive: 118%
15,CCn1c(CN2CCCCC2)nc2cc(NC(=O)COc3ccccc3C(C)(C)C)ccc21,inactive: 101%
16,Cc1coc2c1c(C)cc1oc(=O)c(CC(=O)NCCc3ccc(Cl)cc3)c(C)c12,inactive: 75%
17,COc1ccc(C)cc1NC(=O)c1ccc2nc(Cc3ccccc3)oc2c1,inactive: 118%
18,COc1ccc(CCNC(=O)c2c(O)nc3c(C)cccn3c2=O)cc1OC,inactive: 91%
19,CCC(CC)C(=O)Nc1nnc(SCc2cc(=O)c3ccccc3[nH]2)s1,inactive: 115%

row,SMILES,survival
1,COCCNC(=O)CSc1nc2cc3c(cc2c(=O)n1CCCC(=O)NCCc1ccc(OC)c(OC)c1)OCO3,inactive: 64%
2,CCC(C)(C)NC(=O)C1CCC(CNS(=O)(=O)c2ccc3c(c2)CC(C)N3C(C)=O)CC1 (stereo unspecified),inactive: 69%
3,Cc1ccc(Cl)cc1N1CCN(C2(c3ccccc3)C(=O)c3ccccc3C2=O)CC1,inactive: 100%
4,COc1cccc(NC(=O)Cn2c(=O)n(-c3cccc(OC)c3)c(=O)c3sc4ccccc4c32)c1,inactive: 65%
5,CCCCNC(=O)CCCN1C(=O)CCn2nc(-c3cccn3C)cc21,inactive: 65%
6,CCOCCCNC(=O)CN1C(=O)c2cccnc2Sc2ccccc21,inactive: 84%
7,CCC(C)NS(=O)(=O)c1ccc(N2CCCCS2(=O)=O)cc1 (stereo unspecified),inactive: 124%
8,COc1ccc(C)cc1NC(=O)C1CCCN(S(=O)(=O)c2ccc3c(c2)CCCN3C(C)=O)C1 (stereo unspecified),inactive: 82%
9,COc1cccc2c1cc1c(=O)n(CC(=O)N3CCCCC3)nc(C)n12,inactive: 94%
10,Cc1ccc(-n2c3c(c(=O)[nH]c2=O)C(NS(=O)(=O)c2ccc(Cl)cc2)(C(F)(F)F)C(=O)N3)cc1 (stereo unspecified),inactive: 71%
11,Fc1cccc(NCc2ccccc2-c2nnc(-c3ccccc3Cl)o2)c1,inactive: 110%
12,O=c1c2oc3ccccc3c2n(Cc2ccc(Cl)cc2)c(=O)n1Cc1ccc2c(c1)OCO2,inactive: 66%
13,CCc1ccc(NC(=O)CSc2nc(-c3ccccc3)no2)cc1,inactive: 81%
14,CN1CCN(C(=O)Nc2ccc(Cc3ccc(NC(=O)N4CCN(C)CC4)cc3)cc2)CC1,inactive: 58%
15,COc1ccc(CCNc2ncnc3c2nnn3C)cc1OC,inactive: 80%
16,CN(C)S(=O)(=O)N(CC(=O)Nc1ccc(Br)cc1F)c1ccccc1,inactive: 68%
17,Fc1ccccc1N1CCN(c2nnc(C(F)(F)F)c3nnn(Cc4ccccc4)c23)CC1,inactive: 78%
18,O=C(Cn1c(SCCOc2ccccc2Cl)nc2ccccc21)N1CCOCC1,active: 39%
